# Test results from PubChem BioAssay AID759 (NMMLSC, 2007).
# Hit rate of the full screen: of about 190,000 compounds, about 270 (0.14%) were called active.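 The calls were made as follows: active = GTP binding activity at least 20% away from the 100% baseline, either lowered as inhibitor or raised as activator; inconclusive = flagged as likely green fluorescent, judged across all proteins in the well; inactive = the rest.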 Inconclusive results, whose numbers are uncertain, are shown.
# Molecular target: GTPase HRas (Homo sapiens) (UniProt P01112)
# UniProt P01112, sequence (P01112 whole entry, looked up): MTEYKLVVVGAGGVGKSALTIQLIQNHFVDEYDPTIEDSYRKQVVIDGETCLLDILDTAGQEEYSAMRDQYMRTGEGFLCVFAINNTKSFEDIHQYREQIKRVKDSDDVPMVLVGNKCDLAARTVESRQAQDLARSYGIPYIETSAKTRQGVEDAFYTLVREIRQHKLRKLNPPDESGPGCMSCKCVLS
# Assay: HRas wt fluorescent GTP binding changes, either direction – biochemical, wildtype, bead-based flow cytometry, multiplex, primary screen (AID 759);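 also: 0% = unlabeled GTP competition control and 100% = no-compound control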
# Conditions: GST-Ras wt beads, Bodipy-FL-GTP binding, at 10 µM, actives lie on both sides
row,SMILES,GTP binding activity
1,COc1cc(NS(=O)(=O)c2ccc(NC(=S)NC(=O)c3sc4ccccc4c3Cl)cc2)nc(OC)n1,inconclusive: 87%
